This is an account of results in PMC10004157, “Exploration of Pyrido[3,4-d]pyrimidines as Antagonists of the Human Chemokine Receptor CXCR2” (Molecules, 2023).

For assay [1], the target named is T1, human chemokine receptor CXCR2 (Homo sapiens, UniProt P25025).
T1 sequence (P25025 1-360): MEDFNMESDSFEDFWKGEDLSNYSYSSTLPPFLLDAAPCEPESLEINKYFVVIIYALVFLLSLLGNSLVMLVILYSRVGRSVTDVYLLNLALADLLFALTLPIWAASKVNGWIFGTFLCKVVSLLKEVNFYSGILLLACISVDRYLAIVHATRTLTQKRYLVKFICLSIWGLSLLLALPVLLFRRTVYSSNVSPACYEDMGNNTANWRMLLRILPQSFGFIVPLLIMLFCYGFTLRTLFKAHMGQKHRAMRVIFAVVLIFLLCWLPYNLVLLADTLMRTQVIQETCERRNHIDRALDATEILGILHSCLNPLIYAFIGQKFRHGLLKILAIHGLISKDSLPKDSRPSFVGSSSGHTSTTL
Particulars: for CXCR2 antagonistic potency compared to the original hit 2: comparison of IC50 values; for CXCR2 antagonistic potency compared to the original hit 2 / CXCR2 antagonism (result in words): calcium mobilization assay; for CXCR2 antagonism (result in words): U87.CXCR2 cells. For orientation: Calcium flux is commonly read through the fluorescence of an indicator in the cells.

Assay [2] deals with T1, human chemokine receptor CXCR2. Briefly: cell-based.

The structures appear in SMILES notation. Several values for one entry are separate records, joined by “and”; a condition that tells them apart may be missing. Identical values can stand only once. Like-named read-outs stand apart in the source and are kept apart here.

For the compound `C[C@H](CO)Nc1nc(SCc2cccc(F)c2F)nc2cnccc12` [Compound 2], the IC50 in assay [1] (read-out: IC50 (µM): compound concentration that inhibits CXCL8 induced intracellular calcium flux by 50%, U87 cells overexpressing CXCR2, 15 nM CXCL8, 10 min preincubation, average ± SD of at least three experiments) was 0.11 ± 0.019 µM.
As for `C[C@H](CO)Nc1nc(SCc2cccc(F)c2F)nc2cncc(Cl)c12` [Compound 9, (2R)-2-[(5-Chloro-2-(2,3-difluorobenzylmercapto)-pyrido[3,4-d]pyrimidine-4-yl)amino]propanol], the “CXCR2 antagonistic potency compared to the original hit 2” value in assay [1] was “one hundred fold less potent”. In assay [2], the IC50 was 11 µM and 11.3 µM.
In the case of `C[C@H](CO)Nc1nc(SCc2cccc(F)c2F)nc2cnc(Cl)cc12` [Compound 16a, (2R)-2-[(6-Chloro-2-(2,3-difluorobenzylmercapto)-pyrido[3,4-d]pyrimidine-4-yl)amino]propanol], the “CXCR2 antagonism (result in words)” value in assay [1] is “completely devoid of CXCR2 antagonism”. The same compound had an IC50 in assay [2] above 30 µM.
Turning to `C[C@H](CO)Nc1nc(SCc2cccc(F)c2F)nc2cnc(-n3ccnc3)cc12` [Compound 16b, (2R)-2-[(6-Imidazolyl-2-(2,3-difluorobenzylmercapto)-pyrido[3,4-d]pyrimidine-4-yl)amino]propanol], the “CXCR2 antagonism (result in words)” value in assay [1] is “did not have any beneficial effect on CXCR2 antagonism”. In assay [2], this compound showed an IC50 above 30 µM.
Turning to `C[C@H](CO)Nc1nc(SCc2cccc(F)c2F)nc2cnc(-c3ccccc3)cc12` [Compound 17a, (2R)-2-[(2-(2,3-Difluorobenzylmercapto)-6-phenyl-pyrido[3,4-d]pyrimidine-4-yl)amino]propanol], in assay [1], the “CXCR2 antagonism (result in words)” value is listed as “did not have any beneficial effect on CXCR2 antagonism”. The IC50 in assay [2] was above 30 µM.
Turning to `C[C@H](CO)Nc1nc(SCc2cccc(F)c2F)nc2cnc(-c3ccco3)cc12` [Compound 17b, (2R)-2-[(2-(2,3-Difluorobenzylmercapto)-6-(2-furanyl)-pyrido[3,4-d]pyrimidine-4-yl)amino]propanol], in assay [1], the “CXCR2 antagonistic potency compared to the original hit 2” value is “five-fold reduced potency”. Besides, in assay [2], the IC50 is 0.54 ± 0.26 µM.
As for `Cc1ccc(-c2cc3c(N[C@H](C)CO)nc(SCc4cccc(F)c4F)nc3cn2)o1` [Compound 17c, (2R)-2-[(2-(2,3-Difluorobenzylmercapto)-6-(5-methylfuran-2-yl)-pyrido[3,4-d]pyrimidine-4-yl)amino]propanol], the “CXCR2 antagonism (result in words)” value in assay [1] is “complete loss of activity”. In assay [2], the IC50 is above 30 µM.
Take `C[C@H](CO)Nc1nc(SCc2cccc(F)c2F)nc2cnc(-c3cccs3)cc12` [Compound 17d, (2R)-2-[(2-(2,3-Difluorobenzylmercapto)-6-(2-thienyl)-pyrido[3,4-d]pyrimidine-4-yl)amino]propanol]: in assay [1], the “CXCR2 antagonism (result in words)” value was “did not have any beneficial effect on CXCR2 antagonism”. Besides, the IC50 in assay [2] is above 30 µM.
For `C[C@H](CO)Nc1nc(SCc2cccc(F)c2F)nc2cnc(N)cc12` [Compound 21, (2R)-2-[(6-Amino-2-(2,3-difluorobenzylmercapto)-pyrido[3,4-d]pyrimidine-4-yl)amino]propanol], in that order: “complete loss of CXCR2 antagonistic activity” and above 30 µM.
For the compound `CC[C@H](CO)Nc1nc(SCc2cccc(F)c2F)nc2cnccc12` [Compound 24a, (2R)-2-[(2-(2,3-Difluorobenzylmercapto)-pyrido[3,4-d]pyrimidine-4-yl)amino]butanol], the IC50 in assay [2] was above 30 µM.
Take `CC(C)(CO)Nc1nc(SCc2cccc(F)c2F)nc2cnccc12` [Compound 24b, 2-[(2-(2,3-Difluorobenzylmercapto)-pyrido[3,4-d]pyrimidine-4-yl)amino]-2-methyl-propan-1-ol]: in assay [2], the IC50 is above 30 µM.
Same read-out and setting: the same measure for `OCC(O)CNc1nc(SCc2cccc(F)c2F)nc2cnccc12` (centres unmarked) [Compound 24c, 3-[(2-(2,3-Difluorobenzylmercapto)-pyrido[3,4-d]pyrimidine-4-yl)amino]propan-1,2-diol]: above 30 µM; for `OCCNc1nc(SCc2cccc(F)c2F)nc2cnccc12` [Compound 24d, 3-[(2-(2,3-Difluorobenzylmercapto)-pyrido[3,4-d]pyrimidine-4-yl)amino]ethanol]: above 30 µM.
As to `OCCOc1nc(SCc2cccc(F)c2F)nc2cnccc12` [Compound 24e, 3-[(2-(2,3-Difluorobenzylmercapto)-pyrido[3,4-d]pyrimidine-4-yl)oxy]ethanol], the “CXCR2 antagonism (result in words)” value in assay [1] is “lacking CXCR2 antagonism”. The IC50 in assay [2] is above 30 µM.
As for `C[C@H](CO)Nc1nc(NCc2cccc(F)c2F)nc2cnccc12` [Compound 26a, (2R)-2-[(2-(2,3-Difluorobenzylamino)-pyrido[3,4-d]pyrimidine-4-yl)amino]propanol], in assay [1], the “CXCR2 antagonism (result in words)” value is reported as “devoid of CXCR2 antagonistic activity”. The compound also showed an IC50 in assay [2] above 30 µM.
For `C[C@H](CO)Nc1nc(OCc2cccc(F)c2F)nc2cnccc12` [Compound 26b, (2R)-2-[(2-(2,3-Difluorobenzyloxy)-pyrido[3,4-d]pyrimidine-4-yl)amino]propanol], in that order: “devoid of CXCR2 antagonistic activity” and above 30 µM.
For `C[C@H](CO)Nc1nc(Sc2ccccc2)nc2cnccc12` [Compound 26c, (2R)-2-[(2-(Phenylmercapto)-pyrido[3,4-d]pyrimidine-4-yl)amino]propanol], in that order: “inactive as CXCR2 antagonists” and above 30 µM.
For `C[C@H](CO)Nc1nc(SCCc2ccccc2)nc2cnccc12` [Compound 26d, (2R)-2-[(2-(Phenylethylmercapto)-pyrido[3,4-d]pyrimidine-4-yl)amino]propanol], in that order: “inactive as CXCR2 antagonists” and above 30 µM.
Take `CCCCCCSc1nc(N[C@H](C)CO)c2ccncc2n1` [Compound 26e, (2R)-2-[(2-(Hexylmercapto)-pyrido[3,4-d]pyrimidine-4-yl)amino]propanol]: the IC50 in assay [2] is above 30 µM.
